In a collection of fitness landscapes (doi:10.1016/j.celrep.2020.107928):
Whole data set: some 81,000 sequences, median “one-hybrid fitness for binding NBS DNA” near -0.1, cut for the highest 2% near 0.36. Some of the results follow.

B1: Caulobacter ParB omega fusion; a variant is named by its letters at X, in order, B8GW30 (parent)
chain: MESVVVGEPGMSEGRRGLGRGLSALLGEVDAAPAQAPGEQLGGSREAPIEILQRNPDQPRRTFREEDLEDLSNSIREKGVLQPILVRPSPDTAGEYQIVAGERAWRAAQRAGLKTVPIMVRELDDLAVLEIGIIENVQRADLNVLEEALSYKVLMEKFERTQENIAQTIGKSXSHVANXMRLLXLPDEVQSYLVSGELTAXHARAIAAAADPVALAKQIIEGGLSVRETEALARKAPNLSAGKSKGGRPPRVKDTDTQALESDLSSVLGLDVSIDHRGSTGTLTITYATLEQLDDLCNRLTRGI

Variants of: B1
Assay: one-hybrid fitness for binding NBS DNA (the Noc-binding site; scaled: cognate 1, non-cognate 0); higher = stronger binding
Conditions: with NBS DNA site
Procedure, shortened: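 Values were rescaled so that cognate is 1 and non-cognate is 0. Each is a fitness, the log change in a variant's read ratio to wild type from Illumina reads of plasmids before and after selection, with three replicate libraries pooled and variants under 10 reads dropped. Selection of the Caulobacter ParB libraries, four specificity codons randomised, used E. coli USO with a HIS3 reporter, site 19 bp from the promoter, on M9-minus-histidine with 0.1 mM IPTG and 5 mM 3-AT for 48 hours at 37°C.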

one-hybrid fitness for binding NBS DNA, ≤ 0.2:
NAYR
ALTF
EIGR
VWTN
TAES
KEIS
NCTR
CEPP
YPLP
ELVV
QGHV
QYLF
FHAG
YLDD
WLEY
APHQ
TPLP
KKVT
EFAA
GKTI
VPNK
PINE
FSLT
PWVD
LMQT
QHGE
ENQI
DRQR
GMDI
PGHQ
ECMV
YSME
AMRT
QRWF
PMRP
RNVG
VDPN
TMLF
NGGA
ERVE
PRLN
KWWG
WQPR
VSTY
PSTY
SYEV
AKHW
KQPI
PNPD
LSCC
MVKV
QSFE
TGYF
RNEK
RQNF
TGAL
TFNM
RHLE
GRNW
SVSN
QAAA
INAM
QNHN
FWMS
QNDL
RARK
PEHR
PPWY
KMDF
IRTY
RLFQ
LVDG
DHDN
NYRH
SYNI
AFNC
LDYR
GYYT
SRNF
FANW
YNRR
HCLN
QALA
EESN
HEPT
AACT
PTMV
ATSW
DHNC
AYGC
TRVV
YTKK
LIWD
LTQD
DVYL
ERTA
NSCG
VYTC
TRRW
RLVW
HRNS
VAWE
LTAM
MIYG
VIAM
VLNM
QKAF
HEQS
PPHE
NAAG
LFVP
EVRP
PLTT
FGRM
TYPG
LAFH
HLHI
KRLF
RATK
NSPG
NLVK
SDGR
GDGY
NTEK
AGPG
VAGF
DREY
HLHR
AQDT
GDRC
MATV
MYRT
ADAR
PGYA
FCSY
GRTL
HQMT
IRPT
ITAK
WSQK
WWGG
LSHF
YGLN
TSHC
RLSQ
ACLR
LIQN
MDRY
ICLK
RKAI
GKGF
PCAM
DVNL
GAKG
PHQQ
QKIE
CQYR
GNKL
RNVS
IELR
QTFL
LCTS
DLAR
SSST
ELLT
RGVY
WVWT
AKRH
YQDL
TCSF
LTYN
SQCG
APLI
HHKY
QDDG
HRST
RSWG
SWRL
LEAT
AANC
PHSE
PKHY
SRRD
CVTI
PAAI
VCGT
SKTF
SDLW
GENG
PAQS

one-hybrid fitness for binding NBS DNA, 0.813:
RRNR

one-hybrid fitness for binding NBS DNA, 0.313:
VTRR

one-hybrid fitness for binding NBS DNA, 0.543:
RTTT

one-hybrid fitness for binding NBS DNA, 0.379:
QQPT

one-hybrid fitness for binding NBS DNA, 0.632:
QRNA
